From PubChem BioAssay AID488969 (Vanderbilt High Throughput Screening Facility, 2010)
The full ranking holds about 110,000 compounds; the median of “z-score” is about -0.1, and the highest 2% start at about 2. The list shows a part of the results.

molecular target: Metabotropic glutamate receptor 8 (Rattus norvegicus) (UniProt P70579); assay: mGluR8 Gi/Go-coupled signaling modulation – cell-based, rat, thallium flux, HTS, primary screen (AID 488969); settings: HEK293 rat mGluR8, GIRK (G protein-gated inwardly rectifying potassium channel) thallium flux, FluoZin2; at 10 µM; stronger effect = higher value; submaximal glutamate (EC20) added with thallium
UniProt P70579, sequence (P70579 whole entry, looked up): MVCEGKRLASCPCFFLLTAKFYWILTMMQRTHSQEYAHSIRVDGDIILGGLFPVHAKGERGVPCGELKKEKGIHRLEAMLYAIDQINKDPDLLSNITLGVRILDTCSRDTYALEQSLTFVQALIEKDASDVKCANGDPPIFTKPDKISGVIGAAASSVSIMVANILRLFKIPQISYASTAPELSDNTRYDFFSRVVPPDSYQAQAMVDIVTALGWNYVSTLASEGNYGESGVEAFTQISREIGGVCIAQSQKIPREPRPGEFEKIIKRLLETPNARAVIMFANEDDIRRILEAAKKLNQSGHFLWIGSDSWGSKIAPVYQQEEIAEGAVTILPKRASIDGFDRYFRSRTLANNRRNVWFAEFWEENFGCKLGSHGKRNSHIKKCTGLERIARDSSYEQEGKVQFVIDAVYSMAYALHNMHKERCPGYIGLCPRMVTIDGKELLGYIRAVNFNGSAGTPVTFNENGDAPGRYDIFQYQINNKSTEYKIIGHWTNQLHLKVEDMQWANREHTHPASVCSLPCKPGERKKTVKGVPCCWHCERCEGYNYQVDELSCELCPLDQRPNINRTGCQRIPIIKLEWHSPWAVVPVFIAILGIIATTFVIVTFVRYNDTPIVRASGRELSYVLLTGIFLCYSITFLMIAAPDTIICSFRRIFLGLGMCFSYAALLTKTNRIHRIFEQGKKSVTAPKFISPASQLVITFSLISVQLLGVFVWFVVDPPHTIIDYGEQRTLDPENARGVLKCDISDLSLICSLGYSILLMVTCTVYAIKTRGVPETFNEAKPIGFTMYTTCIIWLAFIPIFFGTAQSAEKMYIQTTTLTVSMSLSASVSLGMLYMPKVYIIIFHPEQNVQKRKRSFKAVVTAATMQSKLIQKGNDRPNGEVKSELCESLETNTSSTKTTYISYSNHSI

SMILES | z-score
CCn1c(SCc2ccccc2)nnc1C1CCCCC1 | -0.237
CCOC(=O)c1c(C=O)c(C)n(Cc2ccccc2Cl)c1C | -0.394
Cc1cc(C(=O)CSc2nnc(Nc3ccccc3F)s2)c(C)n1CC1CCCO1 (stereo not given) | 1.27
Cc1ccc(C2=NN(CC(=O)NCc3ccco3)C(=O)CC2)cc1 | 0.126
COc1cccc(N2C(=O)CC(N3CCN(C(=O)c4ccco4)CC3)C2=O)c1 (stereo not given) | -0.177
O=c1cc(CNc2ccc(Br)cc2)nc2sccn12 | -0.22
Cc1ccccc1NC(=O)Cc1cn(C)c2ccccc12 | -0.2
CCCC[n+]1ccn(C2=C([O-])c3ccccc3C(=O)/C2=N\S(=O)(=O)c2ccccc2)c1 | -0.449
O=c1c2ccccc2c(=O)n(Cc2ccccc2)n1Cc1ccccc1 | -0.168
COc1ccc(N2CCN(CC(O)COc3ccc4c(c3)CCC4)CC2)cc1 (stereo not given) | -0.291
Cc1ccc(-c2c3c(=O)n(C)c(=O)n(C)c3cn2-n2cnnc2)cc1 | 0.604
COCCSc1nnc(NC(=O)C(C)(C)C)s1 | 0.0842
O=c1c2c(nc3cc(-c4ccc(Cl)cc4)[nH]n13)CCS2 | -0.0793
Cc1cccc(C)c1NC(=O)c1sccc1SCC#N | -0.19
O=C(CSc1nnnn1-c1ccccc1)NC(=O)NCc1ccco1 | -0.258
CCNc1nc(Oc2ccc(=O)n(-c3ccccc3)n2)nc(N2CCOCC2)n1 | -0.851
Cn1c(SCc2cc(=O)[nH]c3ccccc23)nnc1-c1ccco1 | -0.244
Cc1cc(=O)n2[nH]c(COc3ccccc3)nc2n1 | -0.647
Cn1c(=O)c2c(nc(SCCN3CCOCC3)n2Cc2ccc(F)cc2)n(C)c1=O | 0.0865
O=C(CCc1ccccc1)NC(NC(=S)Nc1ccc(Br)cc1)C(Cl)(Cl)Cl (stereo not given) | -1.29
Cc1cccc(NC(=O)/C(=C\c2ccc([N+](=O)[O-])o2)NC(=O)c2ccc(Cl)cc2)c1 | -0.673
CCC(C)(C(=O)NC1CCCCC1)N(Cc1ccco1)C(=O)c1ccccn1 (stereo not given) | -0.346
O=C(/C=C/c1cccc([N+](=O)[O-])c1)N1CCOCC1 | 0.0552
CCOC(=O)c1c(NC(=O)CSc2nnc(-c3ccc(OC)cc3)o2)sc2c1CCC2 | -0.224
CCCn1c(SCC(=O)Nc2ccc(OCC)cc2)nnc1C(C)C | 0.00566
O=C(Nc1ccc2c(c1)CCC2)c1ccccc1 | -0.395
Cc1cc(C(=O)COC(=O)CCC(=O)c2ccc3c(c2)OCCO3)c(C)n1Cc1ccco1 | -1.19
CC(=O)c1c(C)[nH]c(C(=O)CSc2nnc(-c3ccco3)n2Cc2ccccc2)c1C | -1.03

SMILES | z-score
Cc1cc(C(N)=O)c2ccccc2n1 | -0.302
Cc1ccc2cc(CN(CCN3CCCC3)C(=O)Nc3ccc(F)cc3)c(=O)[nH]c2c1C | 2.05
CS(=O)(=O)N1CCN(c2ccc([N+](=O)[O-])c(N3CCOCC3)c2)CC1 | -0.494
N#Cc1nc(-c2ccco2)oc1N1CCc2ccccc2C1 | -1.1
Cc1ccc(S(=O)(=O)NCC(=O)OCN2C(=O)c3ccccc3C2=O)cc1 | 0.0308
Cn1c(-c2sccc2OCc2ccccc2)n[nH]c1=S | -0.0122
O=C(NCCc1ccc(Cl)cc1)C1CCC(=O)N1Cc1ccc(F)cc1 (stereo not given) | 0.647
CCOC(=O)N/N=C(\C)c1ccc(Br)cc1 | 0.102
COc1cccc(-c2nn(-c3ccccc3)cc2C(=O)OCC(=O)Nc2ncc(Cl)cc2Cl)c1 | -0.115
Cc1ccccc1OCC(=O)N/N=C/c1ccc([N+](=O)[O-])o1 | 0.0773
CN=c1scc(-c2cc(OC)ccc2OC)n1/N=C/c1c(C)[nH]c2ccccc12 | -0.21
CCOC(=O)N1CCC(Nc2nc3ccccc3n3cnnc23)CC1 | 0.383
CCCc1nc2ccccc2c(=O)n1/N=C/c1ccccc1O | -0.573
CCCCNC(=O)c1cc(-c2ccc(F)cc2)on1 | -0.367
CC(=O)c1ccc(NC(=O)c2ccn(C(=O)OCC(C)C)n2)cc1 | -0.316
COc1cc(C)nc(OCCNC(=O)COc2ccc(Cl)cc2Cl)n1 | 0.0611
COc1ccc(-c2csc(NC(=O)CN3C(=O)CCC3=O)n2)c(OC)c1 | 0.469
Cc1ccc(SCC(=O)NCCSC(C)(C)C)cc1 | -0.206
Cc1ccc(CNC(=O)CS(=O)(=O)CC(=O)O)cc1 | -0.409
CCOC(=O)CSc1n[nH]c(NC(=O)c2ccccc2)n1 | 0.788
CCOC(=O)c1sc2nc(C)nc(SCC(N)=O)c2c1C | 0.749
COc1cc(/C=C(\NC(C)=O)C(=O)Nc2ccccc2C)ccc1OC(C)=O | -0.122
CN(C)/C=C(/C(=O)c1ccc(Cl)cc1)S(=O)(=O)c1ccccc1 | -0.0445
COCCCNC(=O)c1ccc(CS(=O)(=O)Cc2cccc(C)c2)o1 | -2.42
COc1ccc(C(C)C)cc1S(=O)(=O)Nc1ccc(Cl)cn1 | -0.0815
O=C(COC(=O)c1cccs1)NCC1CCCO1 (stereo not given) | -0.27
CN1CCN(S(=O)C23CC4CC(CC(C4)C2)C3)CC1 (stereo not given) | -0.326
